Results: PubChem BioAssay AID488969 (Vanderbilt High Throughput Screening Facility, 2010)
Over roughly 110,000 compounds, “z-score” has its median near -0.1; the highest 2% begin near 2. This is one part of the list.

target: Metabotropic glutamate receptor 8 (Rattus norvegicus) (UniProt P70579); assay: rat mGluR8 modulators via GIRK flux, primary screen, cell-based, thallium flux, HTS (AID 488969); settings: HEK293 rat mGluR8, GIRK (G protein-gated inwardly rectifying potassium channel) thallium flux, FluoZin2; at 10 µM; stronger effect = higher value; submaximal glutamate (EC20) added with thallium
Chain of UniProt P70579 (P70579 whole entry, looked up): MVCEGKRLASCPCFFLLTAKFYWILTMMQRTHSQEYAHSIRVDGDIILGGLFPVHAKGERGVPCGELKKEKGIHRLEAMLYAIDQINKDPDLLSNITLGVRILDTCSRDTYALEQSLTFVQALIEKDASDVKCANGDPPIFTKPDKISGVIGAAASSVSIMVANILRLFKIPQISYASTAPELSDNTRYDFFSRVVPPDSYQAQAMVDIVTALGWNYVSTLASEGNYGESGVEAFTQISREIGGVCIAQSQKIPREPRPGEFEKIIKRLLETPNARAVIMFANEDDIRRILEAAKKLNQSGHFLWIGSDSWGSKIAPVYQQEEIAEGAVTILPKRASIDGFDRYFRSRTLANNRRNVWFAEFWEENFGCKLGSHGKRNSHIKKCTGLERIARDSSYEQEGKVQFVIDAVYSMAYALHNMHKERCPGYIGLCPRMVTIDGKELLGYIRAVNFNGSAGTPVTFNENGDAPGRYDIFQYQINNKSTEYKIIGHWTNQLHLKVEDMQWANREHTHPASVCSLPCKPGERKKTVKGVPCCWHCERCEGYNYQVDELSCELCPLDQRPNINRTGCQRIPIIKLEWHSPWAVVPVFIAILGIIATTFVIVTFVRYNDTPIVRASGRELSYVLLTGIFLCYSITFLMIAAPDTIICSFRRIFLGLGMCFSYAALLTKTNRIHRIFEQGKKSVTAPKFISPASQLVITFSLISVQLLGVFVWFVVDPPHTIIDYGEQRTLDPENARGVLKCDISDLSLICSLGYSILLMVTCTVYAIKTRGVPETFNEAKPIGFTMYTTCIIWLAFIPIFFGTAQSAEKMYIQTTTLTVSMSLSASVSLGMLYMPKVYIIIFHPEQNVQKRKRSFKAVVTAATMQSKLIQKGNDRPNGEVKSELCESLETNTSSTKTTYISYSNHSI

| SMILES | z-score |
| --- | --- |
| Cc1cc(N2C(=O)C3C4c5ccccc5C(c5ccccc54)C3C2=O)no1 (configuration not stated) | -0.47 |
| Cc1ccc(-c2nnc3c(C(F)(F)F)nc4ccccc4n23)cc1 | 0.374 |
| CCOC(=O)c1cc2cc(CC(=O)c3ccc(OCC)cc3O)ccc2o1 | -0.146 |
| O=C(NC(c1ccccc1)c1ccccc1)C1CCCC1 | -0.48 |
| COc1cccc(NC(=O)C(NCC(C)(C)CN(C)C)c2ccccc2)c1 (configuration not stated) | 0.656 |
| CCCCCC(=O)OC(CN1CCCCC1)CN1CCCC1=O (configuration not stated) | 0.0115 |
| COc1ccccc1CN(Cc1cc2cc3c(cc2[nH]c1=O)OCCO3)Cc1nnnn1Cc1ccco1 | -0.31 |
| O=C(NCCC1=CCCCC1)c1ccc([N+](=O)[O-])cc1 | -0.734 |
| N#Cc1c(/N=C/c2cc3ccccc3s2)sc2c1CCC2 | -0.0332 |
| CC1=C(C(=O)NCc2ccco2)C2(CCC(C)CC2)OC1=O (configuration not stated) | 0.426 |
| CC(=O)Oc1ccc2c(C)c(CC(C)O)c(=O)oc2c1 (configuration not stated) | 0.386 |
| Nc1cccc(Cl)c1N1CCOCC1 | 0.479 |
| O=C1c2ccccc2C(Nc2ccc(S(=O)(=O)N3CCOCC3)cc2)N1Cc1ccco1 (configuration not stated) | -0.228 |
| CCOC(=O)N1CCN(S(=O)(=O)c2ccc(C(=O)Nc3ccc4c(c3)C(=O)NC4=O)cc2)CC1 | -0.209 |
| CCOc1ccccc1C(=O)Nc1cccc(-c2nnc(-c3ccccc3)o2)c1 | -0.449 |
| CN(C)N1C(N)=C(C#N)C(c2cccc3ccccc23)C2=C1CC(c1ccccc1)CC2=O (configuration not stated) | -0.215 |
| COc1ccc(Cn2c(CCC(=O)N3CCN(c4ccccn4)CC3)nc3ncccc3c2=O)cc1 | -0.518 |
| CCCCN(C(=O)Nc1ccc(OCC)cc1)C1CCN(C(C)=O)CC1 | -0.227 |
| COC(=O)c1ccc(CSc2nccn2C)cc1 | -0.554 |
| Cn1c(=O)c2c(nc(CN3CCN(C(=O)c4ccco4)CC3)n2Cc2ccc(F)cc2)n(C)c1=O | -0.082 |
| O=C(NCCN1CCN(Cc2ccccc2)CC1)C1c2ccccc2C(=O)N2CCc3ccccc3C12 (configuration not stated) | -0.21 |
| c1ccc(-c2nnc(SCc3cn4ccsc4n3)o2)cc1 | -0.506 |
| Cc1ccc(S(=O)(=O)/N=C2/NC(=O)/C(=C\c3ccco3)S2)cc1 | 1.46 |
| O=C(CC12CC3CC(CC(C3)C1)C2)N/N=C/c1ccncc1 | 0.194 |

| SMILES | z-score |
| --- | --- |
| Cc1[nH]c(=O)[nH]c(=O)c1S(=O)(=O)N(C)Cc1ccccc1 | -0.445 |
| O=C(N/N=C/c1ccccc1F)c1ccc(COc2ccccc2Cl)o1 | -0.397 |
| CS(=O)(=O)N1CCN(Cc2ccccc2C(F)(F)F)CC1 | -0.195 |
| CN(Cc1cccs1)c1ncnc2sccc12 | -0.917 |
| CCN1CCN(CC(=O)Nc2cc(C)c(C)cc2[N+](=O)[O-])CC1 | -0.454 |
| CCNC(=O)CC1SC(=Nc2cccc(Cl)c2C)N(C)C1=O (configuration not stated) | 0.271 |
| O=C(CCN1CCOCC1)Nc1ccccc1 | 0.275 |
| Cn1c(=O)c2c(nc(SCC(=O)N3CCCCCC3)n2C)n(C)c1=O | -0.147 |
| CCOC(=O)N1CCC(N(CCCOC)C(=O)Nc2cccc(OC)c2)CC1 | 0.0606 |
| Cc1cccc(NCC(O)Cn2cnc3c2c(=O)n(C)c(=O)n3C)c1 (configuration not stated) | 0.151 |
| CC1(C)Cc2c(sc(/N=C/N3CCCC3)c2C#N)C(C)(C)N1 | 0.168 |
| O=c1c(Cc2ccccc2)c(O)nc2n1CCS2 | -0.373 |
| CCCCCC(C)n1[nH]c(=O)cc1N (configuration not stated) | -0.135 |
| CN1CCN(S(=O)(=O)c2cccc(S(=O)(=O)c3ccc(Cl)cc3)c2)CC1 | 0.2 |
| CC(C)c1nc(N2CCOCC2)c(C#N)c2c1CCC2 | 0.532 |
| CCCc1cc(=O)[nH]c(SCc2cccc(C)c2)n1 | -0.763 |
| CC1(C)OC(c2ccccc2)=C/C(=C/C=Nc2ccccc2)O1 | -0.134 |
| CC1=NN(c2ccccc2)C(=O)C1N=Nc1ccc(N)cc1 (configuration not stated) | -0.073 |
| O=C(NCc1cccs1)C1CC(c2ccccc2O)=NO1 (configuration not stated) | -0.098 |
| CCOC(=O)c1ccccc1NC(=O)Cc1sc(-c2cccnc2)nc1-c1ccc(C)cc1 | -0.0425 |
| CN(C)c1ccc(NC(=O)/C=C/c2c(Cl)cccc2Cl)cc1 | -0.479 |
| O=C(CSc1nc2c(c(C(F)(F)F)n1)CCc1ccccc1-2)NCc1ccco1 | -0.601 |
| O=C(CCC1N=C2c3ccccc3N=C(SCc3cccc(Cl)c3)N2C1=O)NCc1ccco1 (configuration not stated) | -0.138 |
| Fc1ccc(CN2C3=NCCCN3c3ccccc32)cc1 | -0.37 |

| SMILES | z-score |
| --- | --- |
| COc1ccccc1C(=O)NNC1CC(=O)N(c2ccc3c(c2)OCCO3)C1=O (configuration not stated) | -1.97 |
| Cc1cc(/C=C2\NC(=O)N(Cc3ccc(Cl)cc3)C2=O)c(C)n1C | 0.00862 |
| Cn1cnnc1SCC(=O)Nc1c(F)cc(F)cc1Br | -0.0427 |
| COc1ccc(NC(=O)c2ccc(-n3cccn3)nc2)cc1 | -0.017 |
| COc1ccc(C(CNC(=O)c2ccc3c(c2)C(=O)N(CCC(C)C)C3=O)N2CCOCC2)cc1 (configuration not stated) | 0.332 |
| CN(c1ccccc1C(=O)NC1CC2CCC1C2)S(=O)(=O)c1ccccc1 (configuration not stated) | -0.356 |
| COc1nc(C)nc2c1sc(=S)n2C | -1.07 |
| COc1cc(C(=O)Nc2nc3ccc(S(=O)(=O)N4CCOCC4)cc3s2)cc(OC)c1OC | -0.147 |
| CC1(C)Cc2c(sc3nc(-c4ccccc4)oc(=O)c23)CO1 | -0.0277 |
| CCC(=O)c1ccc(OCC(O)CN(CCc2ccccc2)Cc2ccccc2)cc1 (configuration not stated) | -0.279 |
| CC(C)C(=O)N/N=C/c1ccc(OCc2ccccc2)cc1 | -0.402 |
| Cc1ccc(N/N=C/c2cccnc2)cc1 | -0.225 |
| CC(Oc1cccc(Cl)c1)C(=O)Nc1ccc([N+](=O)[O-])cn1 (configuration not stated) | -0.576 |
| Cc1ccc(Oc2cc(-n3nc(C)cc3C)ncn2)cc1 | -0.129 |
| Clc1ccc(CSc2nnc(Cn3cnc4ccccc43)o2)cc1 | -0.164 |
| CCNC(=O)CC1C(=O)N(c2cccc(OC)c2)C(=O)N1CCOC (configuration not stated) | -0.0255 |
| Cc1nnc(SCC(=O)NNC(=O)c2ccccc2)n1-c1ccccc1 | 0.58 |
| O=C1NCCCC2c3cc(O)c4ccccc4c3OC12N1CCCCC1 (configuration not stated) | 0.88 |
| Cc1nc2c3cc(Cl)ccc3n(CCN3CCCCC3)c2s1 | -0.2 |
| COc1ccc(Nc2oc(COc3cccc(C)c3)nc2C#N)cc1 | -0.231 |
| Nc1nc(-c2ccco2)nn1C(=O)c1ccc(Cl)cc1 | 0.891 |
| Cc1ccc(NC(=O)CN2CCC(C(=O)c3ccc(F)cc3)CC2)cc1 | -0.231 |
| CC(=O)Nc1cccc(C(=O)/C=C/c2ccc(Br)cc2)c1 | -0.447 |
| O=[N+]([O-])c1ccc(Cl)c(/C=N/NC(=S)Nc2ccccc2)c1 | 1.33 |
